Measurements published in the BET-seq Pho4 binding data (Le et al. 2018).
The other results are listed elsewhere or left out. The energies were worked out here from pooled read counts, against the library average; single values are noisy.

target: T1, Pho4 (S. cerevisiae) (UniProt P07270); assay: relative binding free energy (BET-seq); higher = weaker binding; settings: reference: library average
T1 sequence: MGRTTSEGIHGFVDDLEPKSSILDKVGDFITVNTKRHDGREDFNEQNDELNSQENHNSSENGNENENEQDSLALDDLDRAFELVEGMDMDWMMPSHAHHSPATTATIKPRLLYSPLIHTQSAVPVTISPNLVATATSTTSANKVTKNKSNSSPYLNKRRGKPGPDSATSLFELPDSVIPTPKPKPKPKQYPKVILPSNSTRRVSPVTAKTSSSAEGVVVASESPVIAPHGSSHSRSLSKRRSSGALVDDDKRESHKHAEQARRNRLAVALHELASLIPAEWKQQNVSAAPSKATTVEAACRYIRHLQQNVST

Sequence | relative binding free energy [kcal/mol]
GTTTCCACGTGAGGTT | 0.35
GATGTCACGTGCGGTT | 0.07
TTAAGCACGTGGATGA | -0.1
ATTCACACGTGTAGTT | 0.22
GTTGTCACGTGGTTTG | 0.13
TTATGCACGTGGAAGT | 0.01
GGTTGCACGTGCCGGT | 0.08
ATTCTCACGTGGCGGT | 0.19
TTGGTCACGTGAGGTA | 0.33
GGGGTCACGTGAGGGT | 0.38
GAGTCCACGTGACGGG | 0.44
GTGATCACGTGGCTTT | 0.02
AGAGTCACGTGGAGTA | 0.09
CGCCTCACGTGGGTGT | 0.02
TAAGGCACGTGTACGG | -0.07
AATATCACGTGTGATT | 0.19
TATGTCACGTGTGCTT | 0.1
GCGAACACGTGGGGTG | -0.09
CGGAGCACGTGGGAGG | -0.18
TGCGTCACGTGGTGAC | 0.07
TTTACCACGTGGGGCA | -0.15
GTTGTCACGTGGTTGT | 0.15
ATAGACACGTGAGTGG | 0.17
TTCGGCACGTGTATTA | -0.06
TAATTCACGTGGGGCG | 0.33

Sequence | relative binding free energy [kcal/mol]
AGCGGCACGTGTGGGC | -0.15
TGCTTCACGTGTTTTG | 0.3
TTTGTCACGTGACGAG | 0.05
ATTGGCACGTGAATGT | 0.07
ATGTGCACGTGTGTCT | -0.03
ATGGACACGTGGGGCG | -0.14
AGGCTCACGTGTGGTT | 0.19
GAGTTCACGTGGAGGT | 0.33
TTTAACACGTGGGATT | 0.05
CGGTGCACGTGGCAAG | -0.13
CAGGCCACGTGGGGTT | -0.23
CGGGACACGTGAGGGT | 0.26
AGCATCACGTGTTTTA | 0.11
GGGTACACGTGTTTGA | 0.13
GGCTGCACGTGTGCGG | 0.08
TGGGGCACGTGGCTCG | -0.08
TATGCCACGTGGGGCG | -0.33
AAGGTCACGTGAAAAT | 0.42
TGGTACACGTGCGTGT | -0.01
TCGTGCACGTGTGTGA | -0.04
TAAGGCACGTGTGGTT | -0.1
ATGTGCACGTGGGGTT | -0.19
TTAGGCACGTGAGCGA | -0.04
TCTGTCACGTGATGGC | 0.2
TTAATCACGTGGCTGT | 0.14

Sequence | relative binding free energy [kcal/mol]
TCGGACACGTGTGGTA | -0.02
TGGCGCACGTGATGGA | 0.02
CCTTGCACGTGTTGTT | 0.06
AAATGCACGTGGGTAT | -0.17
TGGAGCACGTGGATTT | 0.02
AAAGGCACGTGGAGGG | -0.1
TGTGGCACGTGGGCAG | -0.25
TTAAGCACGTGGGCTA | -0.15
GGGTTCACGTGGAGCA | 0.28
TCTTGCACGTGGTAAT | -0.1
GCGTTCACGTGTGGGT | 0.29
CATTTCACGTGGGCTG | 0.22
TACGTCACGTGAGAGT | 0.24
ACTGGCACGTGGAGGT | -0.06
GCCGTCACGTGGGCTG | 0.06
TTCAACACGTGTGGTG | -0.02
GTGTCCACGTGGCGGG | 0
GTTTTCACGTGTATTC | 0.4
TGTAGCACGTGGGGGT | -0.22
AGTATCACGTGCTGTT | 0.08
GGGGGCACGTGGGTTT | -0.12
TAGGCCACGTGGGCGT | -0.31
TGAGTCACGTGTCCTG | 0.16
TCTGGCACGTGGGAGG | -0.17
AATTGCACGTGGTAGA | 0.03

Sequence | relative binding free energy [kcal/mol]
TTATGCACGTGATAAG | -0.01
GTGGACACGTGTCGTA | 0.15
AGTGTCACGTGCACGG | 0.01
TTTAGCACGTGTGACT | -0.1
GGGTCCACGTGGAGGT | 0.01
CAGTACACGTGTTTGT | 0.03
TACTTCACGTGTATTG | 0.25
GCAGTCACGTGGTTTA | 0.23
GTCTGCACGTGGGAAT | 0.05
AGGGGCACGTGGTTCC | -0.14
GGAGGCACGTGATTGA | 0.01
GGGGTCACGTGGTCCT | 0.08
GTCTGCACGTGCGGGT | -0.1
GTGTTCACGTGGAATT | 0.39
GGTTCCACGTGTATTG | -0.02
CATGGCACGTGTTGTT | -0.13
TTCTTCACGTGGGGGG | 0.09
TTGGTCACGTGAAGCA | 0.22
GAGGACACGTGATGGA | 0.23
AAGTACACGTGTGGTG | 0.06
TGGCTCACGTGGAGTA | 0.18
GGTTCCACGTGTGGTA | 0.1
GTGATCACGTGAGTCG | 0.45
TCAGTCACGTGTTGGC | 0.11
TTTTACACGTGATGAC | 0.27

Sequence | relative binding free energy [kcal/mol]
TGTCGCACGTGATGGT | 0.07
CATGGCACGTGAGTAT | 0.06
ATTTACACGTGTGAAG | 0.13
CTTTACACGTGTTTCG | 0.11
ACGAACACGTGGGGGT | -0.23
ATTTCCACGTGGTTTG | 0.1
GTTAGCACGTGACGGG | -0.02
TTATTCACGTGGATGA | 0.2
TATAACACGTGCTGGG | 0.07
CTTTGCACGTGTATCT | 0.13
GTTGGCACGTGAAGTA | 0.07
AAGTTCACGTGTGATT | 0.28
AGGTGCACGTGTTAGG | 0.02
TGCATCACGTGCTGTT | 0.01
GGTGGCACGTGGGTAC | -0.35
CTTTGCACGTGTGGCT | -0.08
AGTAACACGTGTAGTT | -0.01
GAGGGCACGTGATGAT | 0.14
TGGGGCACGTGAGCAA | 0.18
TGATACACGTGGATGA | 0.02
TCACGCACGTGGGGGG | -0.19
GGTCGCACGTGTTTTG | 0.01
GTATTCACGTGAGTTC | 0.32
GGTCACACGTGAGTGG | 0.13
GAAGTCACGTGAATGT | 0.33

Sequence | relative binding free energy [kcal/mol]
TAGTGCACGTGGGCAT | -0.11
AATGTCACGTGTATTG | 0.12
GGATACACGTGTGATG | 0.17
TTTTCCACGTGAGCGG | 0.32
TGACGCACGTGTGGAG | 0.08
CGTATCACGTGAGGAG | 0.4
ATAGTCACGTGGTTCA | -0.03
AGCTGCACGTGGCGGT | -0.11
GACTGCACGTGTTTGT | 0.06
GGAATCACGTGATGGT | 0.34
CGATGCACGTGACGGG | 0.11
TGATGCACGTGTGTTG | 0.02
TGGGTCACGTGAGCTT | 0.32
TTTTTCACGTGTAAGT | 0.38
GTGGTCACGTGGATAG | 0
AGGCGCACGTGATGTG | -0.15
TGGTTCACGTGGCAGT | 0.05
TGGTGCACGTGGTTTG | -0.01
TCTTTCACGTGGAATA | 0.39
TTGTGCACGTGGGGCT | -0.1
GTAGCCACGTGAGTGT | 0.02
